Laboratory results from the supplement of paper PMC10126150.
Sequences with one replicate were seen in a single cluster, so their values are uncertain.

Tested on: ATP
Assay: switch fluorescence ratio, 500 uM ATP over buffer (Cy3 cluster intensity, sum of 5 cycles each) (fold (ratio)); higher = stronger signal-on switching upon ATP binding; sequences stand for … in TCGTCGGCAGCGTCAGATGTGTATAAGAGACAGTTTTTTTTTTTTTTTTTTTTTTTTT…TC
Settings: aptamer strand: ATP DNA aptamer (quencher-CACCTGGGGGAGTATTGCGGAGGAAGG + anchor), 100 nM annealed; ATP concentration: 500 uM; one replicate
Procedure, shortened: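 Cy3-labelled switching-strand clusters on a modified Illumina MiSeq flow-cell were annealed to 100 nM quencher-labelled ATP aptamer, imaged in selection buffer, then imaged after 15 min with 500 uM ATP at 22 °C. Five buffer/ATP cycles ran, with NaOH stripping and re-annealing between them. The fluorescence ratio is summed target-cycle over summed buffer-cycle Cy3 intensity per cluster, averaged per switch-domain sequence. Clusters outside 100-1000 RFU were excluded.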
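Note: ATP exposure 15 min at 22 °C before imaging.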

Sequence	switch fluorescence ratio
TCTCAGGAGC	1.04
TCTCAGGCCG	1.02
TCTCAGTGTG	2.57
TCTCCAATA	1.64
TCTCCAGTG	2.36
TCTCCCGCT	1.16
TCTCCGTCTG	1.98
TCTCGATCGT	1.07
TCTCGATGTT	1.01
TCTCGCCCGT	0.97
TCTCGCTTGT	1.03
TCTCGGAGGT	1.06
TCTCGGCTAA	2.38
TCTCGGGGCA	1.05
TCTCGGTGCT	0.986
TCTCGTAGTT	1.03
TCTCTAAAGC	1.24
TCTCTCATC	1.05
TCTCTGAGCA	1.19
TCTCTGCCGG	1.04
TCTCTTCTGG	0.986
TCTGACCGTG	1.01
TCTGACTTTG	0.972
TCTGAGGCTA	1.87
TCTGAGGTGT	1.07
TCTGAGGTTG	1.02

Sequence	switch fluorescence ratio
TCTGATAGAA	1.02
TCTGATCATC	1.06
TCTGATCTAT	1.01
TCTGATGCGG	1.06
TCTGCAGACG	1.08
TCTGCGAGA	1.74
TCTGCTAGGT	1.02
TCTGGACGGA	0.99
TCTGGACTGG	1.01
TCTGGAGTTA	1.24
TCTGGCTTTA	1.01
TCTGGGCACG	1.04
TCTGGGCGCA	1
TCTGGGGAAC	0.984
TCTGGTGGCA	1.03
TCTGTA	1.03
TCTGTAACCG	0.99
TCTGTAAGTA	1.01
TCTGTACGCG	1.05
TCTGTCTAAG	1.03
TCTGTGAAAG	1.56
TCTGTTATGG	1
TCTGTTGATC	0.991
TCTTAACGAC	1.14
TCTTAATAGC	1.04
TCTTACATTT	1.04

Sequence	switch fluorescence ratio
TCTTAGGTAA	1.02
TCTTCAAACA	1.04
TCTTCACACC	1.15
TCTTCACTCG	1.54
TCTTCCCGGG	1.13
TCTTCCGCCT	3.92
TCTTCCTGAC	2.15
TCTTCGAAAT	1.8
TCTTCGACTT	1.05
TCTTCGGCCG	1.05
TCTTCTACAA	1.28
TCTTGAGTTG	1.02
TCTTGCCTTC	0.989
TCTTGCTAAT	0.989
TCTTGCTATC	1.28
TCTTGCTGTA	0.966
TCTTGCTTGT	1.02
TCTTGGAGCG	1.04
TCTTGGCAAT	4.46
TCTTGGTGGG	1.02
TCTTGTGCAG	0.983
TCTTGTTTCG	0.983
TCTTTAATA	0.983
TCTTTAGCAC	1.18
TCTTTCAAAT	1.04
